The source of these data is patent publication US20200397913A1, “AXL-SPECIFIC ANTIBODY-DRUG CONJUGATES FOR CANCER TREATMENT” (GENMAB A/S, priority 2015, published 2020).

For assay [1], the system named is MDA-MB-231 and Calu-1 cells. Put plainly: Internalization of cell surface bound HuMab-AXL by flow cytometry. The assay is classed as cell-based, human. The settings on record: 1 hour 4° C, then overnight 37° C versus 4° C. The protocol:
Internalization of cell surface bound HuMab-AXL antibodies to MDA-MB-231 and Calu-1 cells (human lung carcinoma cell line; ATCC, catalognumber HTB-54) was evaluated by flow cytometry. 50,000 cells were seeded in 96-well tissue culture plates and allowed to attach for 6 hrs at 37° C. Plates were incubated at 4° C. for 30 minutes before incubation with serial dilutions of AXL-antibodies (final concentration range 0.0032-10 μg/mL) at 4° C. for 1 hour. Subsequently, the medium was replaced by tissue culture medium without antibody and cells were incubated overnight (16-18 hours) at 37° C. or 4° C. […] Finally, cells were washed twice in PBS/0.1% BSA/0.02% azide, resuspended in 120 μL PBS/0.1% BSA/0.02% azide and analyzed on a FACS Cantoll (BD Biosciences).
(§1) Binding curves were analyzed using non-linear regression (sigmoidal dose-response with variable slope) using GraphPad Prism V5.04 software (GraphPad Software, San Diego, Calif., USA).

For assay [2], the target named is T1, Gas6 binding to AXL on A431 cells (Homo sapiens, UniProt P30530).
T1 construct: endogenous in cells; host or cells: A431
Briefly: Gas6 binding to A431 cells pre-incubated with AXL antibodies. The protocol: Alternatively, A431 cells were pre-incubated with 10 μg/mL AXL antibodies (15 minutes, 4° C.) to assess if the AXL ligand Gas6 could still bind in presence of AXL antibodies. […] After washing three times in PBS/0.1% BSA/0.02% azide, cells were incubated with mouse anti-Gas6 IgG2a (R&D Systems; cat no. MAB885) at 4° C. for 30 min. After washing three times in PBS/0.1% BSA/0.02% azide, cells were incubated with FITC-labelled goat anti-mouse IgG (Dako, Heverlee, Belgium; cat no. F049702) at 4° C. for 30 min in the dark. Next, cells were washed twice in PBS/0.1% BSA/0.02% azide, resuspended in 120 μL PBS/0.1% BSA/0.02% azide and analyzed on a FACS Cantoll (BD Biosciences).
as §1
Therefore, binding of Gas6 to A431 cells that had been pre-incubated with 10 μg/mL AXL antibodies was tested as described in Example 2.

Another assay relates to A431 tumors. Briefly: Therapeutic A431 xenograft model. The assay is classed as in vivo, SCID mice. The settings on record: 3 mg/kg intraperitoneally, model produces high levels of Gas6. The protocol: Tumor induction was performed by subcutaneous injection of 5×10^6 A431 or LCLC-103H tumor cells (both obtained from Leibniz-Institut—Deutsche Sammlung von Mikroorganismen and Zellkulturen GmbH (DSMZ)) in 200 μL PBS in the right flank of female SCID mice. Treatment was started 14-21 days after tumor cell inoculation, when the average tumor size was >100-200 mm^3 and distinct tumor growth was observed. Mice received a single injection or a total of 4 biweekly intraperitoneal injections with IgG1-AXL-vcMMAE ADCs or control antibody (unconjugated IgG1-b12), as indicated. Tumor volume was determined at least two times per week. Tumor volumes (mm^3) were calculated from caliper (PLEXX) measurements as: 0.52×(length)×(width)2.

The test system of assay [3] is LCLC-103H xenograft tumors. Briefly: Therapeutic LCLC-103H xenograft model. The format is in vivo, SCID mice. The conditions noted are these: Example 13: 3 mg/kg intraperitoneally. The protocol:
5×10^6 LCLC-103H (large cell lung carcinoma) tumor cells (obtained from Leibniz-Institut DSMZ-Deutsche Sammlung von Mikroorganismen and Zellkulturen GmbH (DSMZ)) in 200 μL PBS were injected subcutaneously in the right flank of female SCID mice. Starting 14-21 days after tumor cell inoculation, when the average tumor size was >100-200 mm^3 and distinct tumor growth was observed, a single injection with 1 mg/kg (20 μg/mouse) IgG1-AXL-vcMMAE antibodies (as described in Supplementary Example 1) or control (unconjugated IgG1-b12) was given intraperitoneally (100 μL/mouse). Tumor volume was determined at least two times per week. Tumor volumes (mm^3) were calculated from caliper (PLEXX) measurements as: 0.52×(length)×(width)^2.
Tumor induction was performed by subcutaneous injection of 5×10^6 A431 or LCLC-103H tumor cells (both obtained from Leibniz-Institut—Deutsche Sammlung von Mikroorganismen and Zellkulturen GmbH (DSMZ)) in 200 μL PBS in the right flank of female SCID mice. Treatment was started 14-21 days after tumor cell inoculation, when the average tumor size was >100-200 mm^3 and distinct tumor growth was observed. […] Tumor volume was determined at least two times per week. Tumor volumes (mm^3) were calculated from caliper (PLEXX) measurements as: 0.52×(length)×(width)2.

B1: IgG1-AXL-061: human IgG1,κ anti-AXL antibody, VH SEQ ID NO:143, VL SEQ ID NO:144; Ig1 domain binding (antibody, V domains shown)
VH: QVQLVQSGAEVKKPGASVKVSCKASGYAFTGYGISWVRQAPGQGLEWIGWISAYNGNTNYVQNLQDRVTMTTDTSTSTAYMELRSLRSDDTAVYYCARDHISMLRGIIIRNYWGQGTLVTVSS
VL: [skipping about 100 residues]
modifications: homo sapiens
B1: the “internalization of membrane-bound antibody” value in assay [1] is “internalize”. Besides, the “binding of Gas6 to A431 cells pre-incubated with antibody” value in assay [2] (10 μg/mL antibody, versus IgG1-b12 and medium controls) is “largely reduced”. In assay [2] (pre-incubation with 10 μg/mL antibody, control antibody b12), the “Gas6 binding: Maximal binding in presence of AXL antibodies (% of binding in presence of control antibody)” value stood at 22%.

B2: IgG1-AXL-061-vcMMAE: IgG1-AXL-061 (Ig1 binder) conjugated to vcMMAE (conjugate)
VH: QVQLVQSGAEVKKPGASVKVSCKASGYAFTGYGISWVRQAPGQGLEWIGWISAYNGNTNYVQNLQDRVTMTTDTSTSTAYMELRSLRSDDTAVYYCARDHISMLRGIIIRNYWGQGTLVTVSS
VL: [skipping about 100 residues]
As for B2, the figures for the anti-tumor activity result (in the assay with A431 tumors; in assay [3]) were “did not show anti-tumor activity” and “induced tumor regression”, respectively.
